According to PMC3910374 (Cancer research, 2013):

Biological target: T1, His6-tagged BakΔTM (UniProt Q16611 1-186)
T1 sequence (looked up): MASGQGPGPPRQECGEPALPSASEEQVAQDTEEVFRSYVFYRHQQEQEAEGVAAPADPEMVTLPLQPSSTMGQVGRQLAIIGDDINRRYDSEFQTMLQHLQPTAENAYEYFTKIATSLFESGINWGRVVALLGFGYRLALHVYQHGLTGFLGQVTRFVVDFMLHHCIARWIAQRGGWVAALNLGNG
Assay: SPR

- fold tighter binding than unphosphorylated Bcl-2: ~5 fold
B1: CDK1/cyclin B-phosphorylated Bcl-2ΔTM-His6 (domain or fragment)
chain: not shown
modifications: phosphorylated by CDK1 on Thr69, Ser70, Thr74 and Ser87; multiple different phosphorylated species
